The list shows a part of the results.
Legend:
Assay in all cases: glycan array binding signal (z-score within array); higher = stronger binding
Settings in all cases: glycan notation: IUPAC condensed, linker removed
[1] = biological target: Fuc(a1-2)Gal(b1-4)[Fuc(a1-3)]GlcNAc(b1-3)GalNAc
Summary of the method: (§1)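 Glycan array data were curated from 3228 arrays in the Consortium for Functional Glycomics database and kept only where the protein sequence was available. Glycan names were converted to IUPAC-condensed notation, and columns mapping to the same glycan were averaged. The binding signal is a within-array Z-score, averaged across arrays of the same protein sequence at different concentrations or buffers and across linkers. Negative Z-scores can be read as non-binding.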

[2] = biological target: Fuc(a1-2)Gal(b1-4)[Fuc(a1-3)]GlcNAc(b1-3)[Neu5Ac(a2-6)Gal(b1-4)GlcNAc(b1-6)]Gal(b1-4)Glc
Summary of the method: as §1

[3] = biological target: Fuc(a1-2)Gal3S(b1-4)GlcNAc
Summary of the method: as §1

[4] = biological target: Fuc(a1-2)Gal6S(b1-3)GlcNAc
Summary of the method: as §1

[5] = biological target: Fuc(a1-2)Gal6S(b1-3)GlcNAc6S
Summary of the method: as §1

Fuc(a1-2)Gal6S(b1-4)Glc = biological target: Fuc(a1-2)Gal6S(b1-4)Glc
Summary of the method: as §1

[6] = biological target: Fuc(a1-2)Gal6S(b1-4)Glc6S
Summary of the method: as §1

[7] = biological target: Fuc(a1-2)Gal6S(b1-4)GlcNAc
Summary of the method: as §1

Fuc(a1-2)GlcNAc = biological target: Fuc(a1-2)GlcNAc
Summary of the method: as §1

Fuc(a1-2)[Gal(a1-3)]Gal = biological target: Fuc(a1-2)[Gal(a1-3)]Gal
Summary of the method: as §1

[8] = biological target: Fuc(a1-2)[Gal(a1-3)]Gal(b1-3)GalNAc
Summary of the method: as §1

[9] = biological target: Fuc(a1-2)[Gal(a1-3)]Gal(b1-3)GalNAc(b1-3)Gal(a1-4)Gal(b1-4)Glc
Summary of the method: as §1

[10] = biological target: Fuc(a1-2)[Gal(a1-3)]Gal(b1-3)GlcNAc
Summary of the method: as §1

[11] = biological target: Fuc(a1-2)[Gal(a1-3)]Gal(b1-3)GlcNAc(b1-2)Man(a1-3)[Fuc(a1-2)[Gal(a1-3)]Gal(b1-3)GlcNAc(b1-2)Man(a1-6)]Man(b1-4)GlcNAc(b1-4)GlcNAc
Summary of the method: as §1

[12] = biological target: Fuc(a1-2)[Gal(a1-3)]Gal(b1-3)GlcNAc(b1-2)Man(a1-3)[Fuc(a1-2)[Gal(a1-3)]Gal(b1-3)GlcNAc(b1-2)Man(a1-6)]Man(b1-4)GlcNAc(b1-4)[Fuc(a1-6)]GlcNAc
Summary of the method: as §1

[13] = biological target: Fuc(a1-2)[Gal(a1-3)]Gal(b1-3)GlcNAc(b1-3)GalNAc
Summary of the method: as §1

[14] = biological target: Fuc(a1-2)[Gal(a1-3)]Gal(b1-3)GlcNAc(b1-6)GalNAc
Summary of the method: as §1

[15] = biological target: Fuc(a1-2)[Gal(a1-3)]Gal(b1-4)Glc
Summary of the method: as §1

[16] = biological target: Fuc(a1-2)[Gal(a1-3)]Gal(b1-4)GlcNAc
Summary of the method: as §1

[17] = biological target: Fuc(a1-2)[Gal(a1-3)]Gal(b1-4)GlcNAc(b1-2)Man
Summary of the method: as §1

[18] = biological target: Fuc(a1-2)[Gal(a1-3)]Gal(b1-4)GlcNAc(b1-2)Man(a1-3)[Fuc(a1-2)[Gal(a1-3)]Gal(b1-4)GlcNAc(b1-2)Man(a1-6)]Man(b1-4)GlcNAc(b1-4)GlcNAc
Summary of the method: as §1

[19] = biological target: Fuc(a1-2)[Gal(a1-3)]Gal(b1-4)GlcNAc(b1-2)Man(a1-3)[Fuc(a1-2)[Gal(a1-3)]Gal(b1-4)GlcNAc(b1-2)Man(a1-6)]Man(b1-4)GlcNAc(b1-4)[Fuc(a1-6)]GlcNAc
Summary of the method: as §1

[20] = biological target: Fuc(a1-2)[Gal(a1-3)]Gal(b1-4)GlcNAc(b1-3)GalNAc
Summary of the method: as §1

[21] = biological target: Fuc(a1-2)[Gal(a1-3)]Gal(b1-4)GlcNAc(b1-6)GalNAc
Summary of the method: as §1

[22] = biological target: Fuc(a1-2)[Gal(a1-3)]Gal(b1-4)[Fuc(a1-3)]Glc
Summary of the method: as §1

[23] = biological target: Fuc(a1-2)[Gal(a1-3)]Gal(b1-4)[Fuc(a1-3)]GlcNAc
Summary of the method: as §1

[24] = biological target: Fuc(a1-2)[Gal(a1-3)]Gal(b1-4)[Fuc(a1-3)]GlcNAc(b1-3)GalNAc
Summary of the method: as §1

[25] = biological target: Fuc(a1-2)[Gal(a1-4)]Gal(b1-4)GalNAc
Summary of the method: as §1

[26] = biological target: Fuc(a1-2)[Gal(a1-4)]Gal(b1-4)GlcNAc
Summary of the method: as §1

[27] = biological target: Fuc(a1-2)[GalNAc(a1-3)]Gal
Summary of the method: as §1

[28] = biological target: Fuc(a1-2)[GalNAc(a1-3)]Gal(b1-3)GalNAc(a1-3)[Fuc(a1-2)]Gal(b1-4)GlcNAc
Summary of the method: as §1

[29] = biological target: Fuc(a1-2)[GalNAc(a1-3)]Gal(b1-3)GalNAc(b1-3)Gal(a1-4)Gal(b1-4)Glc
Summary of the method: as §1

[30] = biological target: Fuc(a1-2)[GalNAc(a1-3)]Gal(b1-3)GlcNAc
Summary of the method: as §1

[31] = biological target: Fuc(a1-2)[GalNAc(a1-3)]Gal(b1-3)GlcNAc(b1-2)Man(a1-3)[Fuc(a1-2)[GalNAc(a1-3)]Gal(b1-3)GlcNAc(b1-2)Man(a1-6)]Man(b1-4)GlcNAc(b1-4)GlcNAc
Summary of the method: as §1

[32] = biological target: Fuc(a1-2)[GalNAc(a1-3)]Gal(b1-3)GlcNAc(b1-2)Man(a1-3)[Fuc(a1-2)[GalNAc(a1-3)]Gal(b1-3)GlcNAc(b1-2)Man(a1-6)]Man(b1-4)GlcNAc(b1-4)[Fuc(a1-6)]GlcNAc
Summary of the method: as §1

[33] = biological target: Fuc(a1-2)[GalNAc(a1-3)]Gal(b1-3)GlcNAc(b1-3)GalNAc
Summary of the method: as §1

[34] = biological target: Fuc(a1-2)[GalNAc(a1-3)]Gal(b1-3)GlcNAc(b1-6)GalNAc
Summary of the method: as §1

[35] = biological target: Fuc(a1-2)[GalNAc(a1-3)]Gal(b1-4)Glc
Summary of the method: as §1

[36] = biological target: Fuc(a1-2)[GalNAc(a1-3)]Gal(b1-4)GlcNAc
Summary of the method: as §1

[37] = biological target: Fuc(a1-2)[GalNAc(a1-3)]Gal(b1-4)GlcNAc(b1-2)Man
Summary of the method: as §1

[38] = biological target: Fuc(a1-2)[GalNAc(a1-3)]Gal(b1-4)GlcNAc(b1-2)Man(a1-3)[Fuc(a1-2)[GalNAc(a1-3)]Gal(b1-4)GlcNAc(b1-2)Man(a1-6)]Man(b1-4)GlcNAc(b1-4)GlcNAc
Summary of the method: as §1

[39] = biological target: Fuc(a1-2)[GalNAc(a1-3)]Gal(b1-4)GlcNAc(b1-2)Man(a1-3)[Fuc(a1-2)[GalNAc(a1-3)]Gal(b1-4)GlcNAc(b1-2)Man(a1-6)]Man(b1-4)GlcNAc(b1-4)[Fuc(a1-6)]GlcNAc
Summary of the method: as §1

[40] = biological target: Fuc(a1-2)[GalNAc(a1-3)]Gal(b1-4)GlcNAc(b1-3)Gal(b1-4)GlcNAc
Summary of the method: as §1

[41] = biological target: Fuc(a1-2)[GalNAc(a1-3)]Gal(b1-4)GlcNAc(b1-3)Gal(b1-4)GlcNAc(b1-3)Gal(b1-4)GlcNAc
Summary of the method: as §1

[42] = biological target: Fuc(a1-2)[GalNAc(a1-3)]Gal(b1-4)GlcNAc(b1-3)GalNAc
Summary of the method: as §1

B1: LTL (Lotus tetragonolobus), P19664 (protein)
chain: VSFNYTEFKDDGSLILQGDAKIWTDGRLAMPTDPLVNNPKTTRSAGRALYATPVPIWDSATGNVASFVTSFNFLFVIRELKYTPTDGLVFFLAPVGTEIPSGSTGGFLGIFDGSNGFNQFVAVEFDSYHNIWDPKSLRSSHVGIDVNSIMSLKAVNWNRVSGSLEKATIIYDSQTNILSVVMTSQNGQITTIYGTIDLKTVLPEKVSVGFSATTGNPEREKHDIYSWSFTSTLKEPEEQA
glycan array binding signal (z-score) [1]: 1.45
glycan array binding signal (z-score) [2]: -0.181
glycan array binding signal (z-score) [3]: -0.257
glycan array binding signal (z-score) [4]: -0.38
glycan array binding signal (z-score) [5]: 0.098
glycan array binding signal (z-score) (Fuc(a1-2)Gal6S(b1-4)Glc): 0.096
glycan array binding signal (z-score) [6]: -0.199
glycan array binding signal (z-score) [7]: -0.004
glycan array binding signal (z-score) (Fuc(a1-2)GlcNAc): 2.03
glycan array binding signal (z-score) (Fuc(a1-2)[Gal(a1-3)]Gal): -0.102
glycan array binding signal (z-score) [8]: 0.102
glycan array binding signal (z-score) [9]: -0.059
glycan array binding signal (z-score) [10]: -0.052
glycan array binding signal (z-score) [11]: -0.093
glycan array binding signal (z-score) [12]: -0.031
glycan array binding signal (z-score) [13]: -0.25
glycan array binding signal (z-score) [14]: 0.017
glycan array binding signal (z-score) [15]: -0.211
glycan array binding signal (z-score) [16]: -0.206
glycan array binding signal (z-score) [17]: -0.28
glycan array binding signal (z-score) [18]: -0.154
glycan array binding signal (z-score) [19]: -0.143
glycan array binding signal (z-score) [20]: 0.053
glycan array binding signal (z-score) [21]: -0.201
glycan array binding signal (z-score) [22]: -0.357
glycan array binding signal (z-score) [23]: -0.074
glycan array binding signal (z-score) [24]: 0.447
glycan array binding signal (z-score) [25]: 0.201
glycan array binding signal (z-score) [26]: 0.558
glycan array binding signal (z-score) [27]: -0.25
glycan array binding signal (z-score) [28]: -0.106
glycan array binding signal (z-score) [29]: -0.302
glycan array binding signal (z-score) [30]: -0.35
glycan array binding signal (z-score) [31]: -0.222
glycan array binding signal (z-score) [32]: -0.187
glycan array binding signal (z-score) [33]: -0.092
glycan array binding signal (z-score) [34]: -0.217
glycan array binding signal (z-score) [35]: -0.237
glycan array binding signal (z-score) [36]: -0.233
glycan array binding signal (z-score) [37]: -0.189
glycan array binding signal (z-score) [38]: -0.276
glycan array binding signal (z-score) [39]: 0.111
glycan array binding signal (z-score) [40]: -0.032
glycan array binding signal (z-score) [41]: 0.628
glycan array binding signal (z-score) [42]: -0.219

— the supplement of paper PMC8728848
